# In all, about 2,300 compounds went through this assay and about 95 (4%) were called active. This list was built around the results that the source calls inconclusive (neither active nor inactive); the mix of calls is not that of the screen. Calls follow the shape of the dose curve; as a rule, active = well fitted activation curve with a large enough effect; inconclusive = small, poorly fitted or top-dose-only effect; inactive = flat fitted curve, though single readings scatter. Potencies beside an inconclusive call are fits to weak or partial responses and may not hold up.
# Molecular target: D(3) dopamine receptor (Homo sapiens) (UniProt P35462)
# UniProt P35462, sequence (P35462 whole entry, looked up): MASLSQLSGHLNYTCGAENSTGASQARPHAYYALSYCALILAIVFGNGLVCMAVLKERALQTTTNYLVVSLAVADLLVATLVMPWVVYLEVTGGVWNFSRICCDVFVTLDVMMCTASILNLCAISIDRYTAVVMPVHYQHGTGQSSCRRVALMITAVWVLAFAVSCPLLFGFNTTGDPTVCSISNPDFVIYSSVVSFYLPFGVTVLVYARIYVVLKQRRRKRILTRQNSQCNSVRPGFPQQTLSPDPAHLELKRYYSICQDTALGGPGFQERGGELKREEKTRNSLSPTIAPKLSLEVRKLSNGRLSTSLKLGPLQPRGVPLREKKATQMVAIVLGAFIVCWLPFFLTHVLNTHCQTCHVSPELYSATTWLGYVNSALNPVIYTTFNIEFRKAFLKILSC
# Assay: qHTS of D3 Dopamine Receptor Agonist: D3 Dopamine Receptor B-arrestin Agonist Confirmatory Assay; also: nearly all actives have a fitted effect of over 70% in size;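 as to activation: 100% = dopamine control response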
# Details: DiscoveRx D3 beta-arrestin cells, luminescence, 90 min; activation: at 76.9 µM (top of the series)
# Source text: D3 DARs represent a very important target for the treatment of several neuropsychiatric disorders. Indeed, one of the most promising therapeutic applications for the D3 DAR is in the area of addiction and related disorders. […] These findings have been observed with a number of addictive substances including cocaine, amphetamine, nicotine, and alcohol. […] Increased D3 DAR activity can thus lead to neuroprotective and neurorestorative actions in the CNS. […] This assay is used to confirm the activity of the identified D3 dopamine receptor agonist. Activation is the desired outcome for this assay. NIH Molecular Libraries Probe Production Centers Network [MLPCN] NIH Chemical Genomics Center [NCGC] MLPCN Grant: NS064831 Assay Submitter (PI): David Sibley
# Freshly passaged DiscoveRx D3 cells are plated in 1536 well white, solid bottom plates at a density of 1500 cells/well in 3microl of complete media. After an overnight incubation at 37 degrees C in 5% CO2, cells are loaded with 23nl of test compound from the compound library (as well as dopamine controls) using a 1536 pintool and incubated at 37 degrees C for 90 minutes. Two microliters of DiscoveRx reagent is then added to all cells, and they are incubated for an additional 30 - 60 minutes at room temperature. Following incubation, luminescence is measured on a ViewLux CCD-based luminometer reader using a 20 sec exposure time.
# Potency is read from the fitted curve at half-maximal effect; tags tell the direction and shape of the fitted curve.
Compound,Potency,activation
NCCc1ccc(O)cc1,"inconclusive: 28.2 µM [activator, full curve]",–
CC(C(N)=O)N1CC(c2ccccc2)CC1=O (stereo not drawn),inactive,–
c1cc(CNCCc2ccc3c(c2)OCO3)ccn1,"inconclusive: 35.5 µM [activator, partial curve]",–
COc1cc2c3c(c1OC)-c1cc(O)ccc1CC3NCC2 (stereo not drawn),inactive,–
Fc1ccccc1N1CCN(Cc2ccc3c(c2)OCO3)CC1,"inconclusive: 0.1 µM [activator, full curve, poor fit]",–
CC1=C[C@@H]2c3cccc4[nH]cc(c34)C[C@H]2N(C)C1,active: 0.0891 µM,–
C=CCN1CCc2cccc3c2[C@H]1Cc1ccc(O)c(O)c1-3,active: 0.02 µM,–
NC(=O)c1ccc(OCCC(O)N2CC=C(c3ccc(F)cc3)CC2)cc1 (stereo not drawn),"inconclusive: 0.251 µM [activator, full curve, poor fit]",–
c1ccc(CCN2CCC(N3CCN(c4ccccc4)CC3)CC2)cc1,"inconclusive: 1.26 µM [activator, full curve]",–
CCN(CC)S(=O)(=O)c1cc(NC(=O)C(C)N2CC=C(c3ccccc3)CC2)ccc1C (stereo not drawn),inactive,–
CCN(CC)C(=O)N[C@H]1C[C@@H]2c3cccc4[nH]cc(c34)C[C@H]2N(C)C1,"inconclusive: 0.0079 µM [activator, full curve, poor fit]",–
CC[C@@H](CO)NC(=O)[C@@H]1C=C2c3cccc4c3c(cn4C)C[C@H]2N(C)C1,–,inconclusive: 31.3% [activator]
CC(C)C[C@H]1C(=O)N2CCC[C@H]2[C@]2(O)O[C@](NC(=O)[C@@H]3C=C4c5cccc6[nH]cc(c56)C[C@H]4N(C)C3)(C(C)C)C(=O)N12,"inconclusive: 0.199 µM [activator, full curve, poor fit]",–
COc1ccc(NC(=O)CN2CC=C(c3ccccc3)CC2)cc1S(=O)(=O)N1CCOCC1,"inconclusive: 0.708 µM [activator, full curve, poor fit]",–
CC(=O)c1cccc(OCC(O)CN2CC=C(c3ccccc3)CC2)c1 (stereo not drawn),"inconclusive: 0.355 µM [activator, full curve, poor fit]",–
CC(C)(C)c1cc(C=C(C#N)C#N)cc(C(C)(C)C)c1O,"inconclusive: 0.0126 µM [activator, full curve, poor fit]",–
CN1C[C@H](CO)C[C@@H]2c3cccc4[nH]cc(c34)C[C@H]21,"inconclusive: 0.447 µM [activator, full curve]",–

Compound,Potency,activation
OC(COCc1ccc(Cl)cc1)CN1CC=C(c2ccccc2)CC1 (stereo not drawn),active: 50.1 µM,–
CCc1ccc(CNCCc2c[nH]c3ccccc23)cc1,inactive,–
CC(C)C[C@H]1C(=O)N2CCCC2[C@]2(O)O[C@](NC(=O)[C@@H]3C=C4c5cccc6[nH]cc(c56)CC4N(C)C3)(C(C)C)C(=O)N12 (stereo partly drawn),"inconclusive: 0.891 µM [activator, full curve]",–
COc1c2c(cc3c1OCO3)CCN(C)C2,"inconclusive: 3.16 µM [activator, full curve]",–
CCC(CO)NC(=O)C1C=C2c3cccc4[nH]cc(c34)CC2N(C)C1 (stereo not drawn),active: 2.82 µM,–
CCNCC(O)c1cccc(O)c1 (stereo not drawn),"inconclusive: 7.08 µM [activator, full curve, poor fit]",–
CCCN1CC[C@@H]2c3cc(O)ccc3CC[C@@H]21,"inconclusive: 0.501 µM [activator, full curve, poor fit]",–
CC(C)C[C@H]1C(=O)N2CCC[C@H]2[C@]2(O)O[C@](NC(=O)[C@@H]3C=C4c5cccc6[nH]c(Br)c(c56)CC4N(C)C3)(C(C)C)C(=O)N12 (stereo partly drawn),"inconclusive: 0.1 µM [activator, full curve]",–
CC(CCc1ccccc1)NCCC#N (stereo not drawn),"inconclusive: 12.6 µM [activator, full curve]",–
OC(CN1CC=C(c2ccccc2)CC1)c1ccccc1 (stereo not drawn),"inconclusive: 50.1 µM [activator, full curve, poor fit]",–
Clc1ccc2c(c1)C(c1ccccc1Cl)=NCc1nnc(N3CCN(CCOc4ccccc4)CC3)n1-2,"inconclusive: 5.62 µM [activator, full curve]",–
CN1C(=O)/C(=C\c2ccc(N3CCCCC3)o2)C(=O)NC1=S,inactive,–
NC1CCc2cc(O)c(O)cc2C1 (stereo not drawn),active: 0.0224 µM,–
CC(=O)N1CCC(N2CCCC(C(=O)c3cccc(Cl)c3)C2)CC1 (stereo not drawn),"inconclusive: 56.2 µM [activator, partial curve, poor fit]",–
COC(=O)C1=C(c2c(C)noc2C)C[C@@H]2CC[C@H]1N2C(=O)NC(C)C,inactive,–
CCCN1CCO[C@@H]2c3cc(O)ccc3OC[C@H]21,active: 0.0447 µM,–

# — PubChem BioAssay AID720506 (National Center for Advancing Translational Sciences (NCATS), 2013)
